IC50 is the fitted dose that halves viability relative to control wells, and lower means more sensitive; a limit (>, <) means that the fit lies beyond the doses tested. AUC sums up the same curve from the lowest dose to the 256-fold higher top dose: 1 means no effect, lower means more sensitive. The top dose, if marked as inferred, was calculated from the reported fits. A value given as a limit tells only on which side of the number the result lay.

Compound in this assay: O=C1NC(=O)/C(=C\c2ccc3nccnc3c2)S1 [AS605240]
The experiment in a line: Viability of human cancer cell lines after 72 h of drug (GDSC screen). The conditions noted are these: top dose inferred. As for the experimental part: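 Human cancer cell lines in 384-well plates, medium with 10% serum, drug for 72 h over a 256-fold dose range (nine 2-fold or five 4-fold steps up to the top dose). Adherent lines were fixed and stained with the nucleic acid dye Syto60, suspension lines read with resazurin; signal relative to control wells, capped at 0 and 100%. One two-parameter sigmoid per drug and line, fitted in a mixed model over all curves with the slope shared within a line.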
Turning to OVISE (ovary, adherent, top dose 20 µM), the AUC worked out at 0.736 and the IC50 – broadly, the concentration that inhibits the measured activity by half – was determined as 7.49 µM.
The corresponding values for “OVK-18 (ovary, adherent, top dose 20 µM)” are 0.938 and above 20 µM.
Regarding “OVKATE (ovary, adherent, top dose 20 µM)”, the AUC came out at 0.886 and the IC50 was above 20 µM.
On to OVMIU (ovary, adherent, top dose 20 µM), for which the AUC came out at 0.573 and the IC50 was found to be 2.09 µM.
Regarding “OVTOKO (ovary, adherent, top dose 20 µM)”, the AUC is 0.945 and the IC50 was above 20 µM.
The corresponding values for “P12-ICHIKAWA (T-cell lymphoblastic leukaemia, suspension, top dose 20 µM)” are 0.544 and 1.6 µM.
The corresponding values for “P30-OHK (lymphoblastic leukaemia, suspension, top dose 20 µM)” are 0.869 and 13.5 µM.
The corresponding values for “P31-FUJ (acute myeloid leukaemia, suspension, top dose 20 µM)” are 0.989 and above 20 µM.
Regarding “P32-ISH (Burkitt lymphoma, suspension, top dose 20 µM)”, the AUC worked out at 0.947 and the IC50 is above 20 µM.
In the case of PA-1 (ovary, adherent, top dose 20 µM), the AUC worked out at 0.6 and the IC50 was determined as 2.2 µM.
In the case of “PA-TU-8902 (pancreas, adherent, top dose 20 µM)”, the AUC turned out to be 0.533 and the IC50 turned out to be 1.57 µM.
The matching figures for “PA-TU-8988T (pancreas, adherent, top dose 20 µM)”: 0.872 and 19.2 µM.
The corresponding values for “PANC-02-03 (pancreas, adherent, top dose 20 µM)” are 0.633 and 3.15 µM.
The matching figures for “PANC-03-27 (pancreas, adherent, top dose 20 µM)”: 0.793 and 8.49 µM.
For “PANC-04-03 (pancreas, adherent, top dose 20 µM)”, the AUC is 0.956 and the IC50 was above 20 µM.
The matching figures for “PANC-08-13 (pancreas, adherent, top dose 20 µM)”: 0.802 and 13.3 µM.
In the case of “PANC-10-05 (pancreas, adherent, top dose 20 µM)”, the AUC was determined as 0.747 and the IC50 turned out to be 8.02 µM.
Regarding “PC-3 (prostate, adherent, top dose 20 µM)”, the AUC came out at 0.881 and the IC50 was above 20 µM.
The corresponding values for “PC-3 [JPC-3] (lung adenocarcinoma, adherent, top dose 20 µM)” are 0.763 and 9.52 µM.
Regarding “PC-14 (lung adenocarcinoma, adherent, top dose 20 µM)”, the AUC was found to be 0.857 and the IC50 came out at 13.5 µM.
The corresponding values for “PCI-4B (head and neck, adherent, top dose 20 µM)” are 0.928 and above 20 µM.
Regarding “PCI-6A (head and neck, adherent, top dose 20 µM)”, the AUC amounted to 0.88 and the IC50 was above 20 µM.
The corresponding values for “PCI-15A (head and neck, adherent, top dose 20 µM)” are 0.899 and above 20 µM.
In the case of “PCI-30 (head and neck, adherent, top dose 20 µM)”, the AUC came to 0.974 and the IC50 was above 20 µM.
As for “PCI-38 (head and neck, adherent, top dose 20 µM)”, the AUC came out at 0.944 and the IC50 is above 20 µM.
As to “PE/CA-PJ15 (head and neck, adherent, top dose 20 µM)”, the AUC came out at 0.949 and the IC50 was above 20 µM.
Consider PEO1 (ovary, adherent, top dose 20 µM), for which the AUC came to 0.855 and the IC50 amounted to 17 µM.
Turning to “PF-382 (T-cell lymphoblastic leukaemia, suspension, top dose 20 µM)”, the AUC worked out at 0.605 and the IC50 amounted to 2.34 µM.
As to “PFSK-1 (medulloblastoma, adherent, top dose 20 µM)”, the AUC was 0.876 and the IC50 was above 20 µM.
The corresponding values for “PL4 (pancreas, adherent, top dose 20 µM)” are 0.905 and above 20 µM.
The matching figures for “PL18 (pancreas, adherent, top dose 20 µM)”: 0.845 and 14.4 µM.
Turning to “PL-21 (acute myeloid leukaemia, suspension, top dose 20 µM)”, the AUC came out at 0.456 and the IC50 was 0.928 µM.
The corresponding values for “PSN1 (pancreas, adherent, top dose 20 µM)” are 0.252 and 0.28 µM.
For the cell line “QGP-1 (pancreas, adherent, top dose 20 µM)”, the AUC was 0.716 and the IC50 came out at 7.58 µM.
Consider “QIMR-WIL (acute myeloid leukaemia, suspension, top dose 20 µM)”, for which the AUC amounted to 0.499 and the IC50 is 1.24 µM.
The corresponding values for “RC-K8 (B-cell lymphoma, suspension, top dose 20 µM)” are 0.977 and above 20 µM.
For “RCC10RGB (kidney, adherent, top dose 10.24 µM)”, the AUC was determined as 0.931 and the IC50 is above 10.2 µM.
“RCC-AB (kidney, adherent, top dose 20 µM)”: the AUC was found to be 0.822 and the IC50 is 16.7 µM.
The corresponding values for “RCC-ER (kidney, adherent, top dose 20 µM)” are 0.938 and above 20 µM.
The corresponding values for “RCC-FG2 (kidney, adherent, top dose 20 µM)” are 0.892 and above 20 µM.
With “RCC-JF (kidney, adherent, top dose 20 µM)”, the AUC turned out to be 0.828 and the IC50 worked out at 14.4 µM.
The matching figures for “RCC-JW (kidney, adherent, top dose 20 µM)”: 0.581 and 2.1 µM.
With “RCC-MF (kidney, adherent, top dose 20 µM)”, the AUC was determined as 0.726 and the IC50 was 6.74 µM.
On to “RCM-1 (large intestine, adherent, top dose 20 µM)”, for which the AUC is 0.535 and the IC50 is 1.59 µM.
For the cell line “RD (rhabdomyosarcoma, adherent, top dose 20 µM)”, the AUC worked out at 0.964 and the IC50 was above 20 µM.
The matching figures for “REH (B-cell leukaemia, suspension, top dose 20 µM)”: 0.923 and above 20 µM.
The matching figures for “RERF-GC-1B (stomach, adherent, top dose 20 µM)”: 0.958 and above 20 µM.
On to “RERF-LC-KJ (lung adenocarcinoma, adherent, top dose 20 µM)”, for which the AUC amounted to 0.962 and the IC50 is above 20 µM.
The matching figures for “RERF-LC-MS (lung adenocarcinoma, adherent, top dose 20 µM)”: 0.849 and 15.6 µM.
The matching figures for “RERF-LC-Sq1 (lung squamous cell carcinoma, adherent, top dose 20 µM)”: 0.839 and above 20 µM.
The corresponding values for “RF-48 (stomach, adherent, top dose 20 µM)” are 0.77 and 8.55 µM.
As to “RH-1 (rhabdomyosarcoma, adherent, top dose 20 µM)”, the AUC was 0.832 and the IC50 was determined as 9.94 µM.
With “RH-41 (rhabdomyosarcoma, adherent, top dose 20 µM)”, the AUC is 0.966 and the IC50 is above 20 µM.
The corresponding values for RKN (ovary, adherent, top dose 20 µM) are 0.386 and 0.597 µM.
“RKO (large intestine, adherent, top dose 20 µM)”: the AUC came out at 0.883 and the IC50 was found to be 18.8 µM.
In the case of “RL95-2 (endometrium, adherent, top dose 20 µM)”, the AUC is 0.977 and the IC50 is above 20 µM.
Consider “RL (B-cell lymphoma, suspension, top dose 20 µM)”, for which the AUC came to 0.818 and the IC50 came out at 10.1 µM.
The matching figures for “RO82-W-1 (thyroid, adherent, top dose 20 µM)”: 0.982 and above 20 µM.
“ROS-50 (B-cell leukaemia, suspension, top dose 20 µM)”: the AUC was 0.931 and the IC50 is above 20 µM.
Regarding “RPMI-2650 (head and neck, adherent, top dose 20 µM)”, the AUC stood at 0.911 and the IC50 is above 20 µM.
The matching figures for “RPMI-6666 (Hodgkin lymphoma, suspension, top dose 20 µM)”: 0.622 and 2.9 µM.
For the cell line “RPMI-7951 (melanoma, adherent, top dose 20 µM)”, the AUC was 0.791 and the 50% inhibitory concentration (IC50) amounted to 8.71 µM.
As to “RPMI-8226 (myeloma, suspension, top dose 20 µM)”, the AUC came to 0.94 and the IC50 is above 20 µM.
In the case of “RPMI-8402 (T-cell lymphoblastic leukaemia, suspension, top dose 20 µM)”, the AUC was determined as 0.483 and the IC50 is 1.13 µM.
The corresponding values for “RPMI-8866 (chronic myeloid leukaemia, suspension, top dose 20 µM)” are 0.884 and 18.9 µM.
Take “RS4-11 (leukaemia, suspension, top dose 20 µM)”: the AUC was 0.888 and the IC50 is 19.3 µM.
The matching figures for RT4 (bladder, adherent, top dose 20 µM): 0.987 and above 20 µM.

The values above are taken from the supplement of paper PMC4967469.
